# Test results reported in paper PMC12820563.
# Some of the results follow. The list includes weakly bound sequences.
# Biological target: T1, MBP-FoxP3dN (UniProt Q99JB6)
# T1 sequence: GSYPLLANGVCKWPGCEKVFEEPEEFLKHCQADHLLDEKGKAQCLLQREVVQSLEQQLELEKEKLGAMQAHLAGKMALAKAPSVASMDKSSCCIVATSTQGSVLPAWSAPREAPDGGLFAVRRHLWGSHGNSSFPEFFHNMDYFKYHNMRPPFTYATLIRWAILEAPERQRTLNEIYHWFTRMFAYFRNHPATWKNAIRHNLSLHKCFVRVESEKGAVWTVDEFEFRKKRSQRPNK
# Assay: PD-seq (MBP pull-down with sequencing)
# Conditions: 20 mM Tris-HCl pH 7.5, 100 mM NaCl, 1.5 mM MgCl2, 0.4 uM protein, 0.1 uM dsDNA library, 30 min, room temperature, amylose pull-down; high values mean tight binding; double strand, one strand shown
row,Sequence,binding signal (RPM ratio (pull-down/input))
1,GATGATTGTTCTCCCAGCTGATGAATTTAACTGGTCGAGTAAACAAATTTTCCTAATCTTTCTGTTCAAGCGCCATCTAC,0.308
2,GATGATTGTTCTCCCAGCTGATGAATTAAAAGTATCGAGTAAACAAATTTTCCTAATCTTTCTGTTCAAGCGCCATCTAC,0.407
3,GATGATTGTTCTCCCAGCTGATGAATTTTATTGCTCGAGTAAACAAATTTTCCTAATCTTTCTGTTCAAGCGCCATCTAC,2.06
4,GATGATTGTTCTCCCAGCTGATGAATTCAAGTCGTCGAGTAAACAAATTTTCCTAATCTTTCTGTTCAAGCGCCATCTAC,0.342
5,GATGATTGTTCTCCCAGCTGATGAATTATGCAGGTCGAGTAAACAAATTTTCCTAATCTTTCTGTTCAAGCGCCATCTAC,1.53
6,GATGATTGTTCTCCCAGCTGATGAATTCCCTACCTCGAGTAAACAAATTTTCCTAATCTTTCTGTTCAAGCGCCATCTAC,0.251
7,GATGATTGTTCTCCCAGCTGATGAATTTTTCCTATCGAGTAAACAAATTTTCCTAATCTTTCTGTTCAAGCGCCATCTAC,0.232
8,GATGATTGTTCTCCCAGCTGATGAATTTGTGTGCTCGAGTAAACAAATTTTCCTAATCTTTCTGTTCAAGCGCCATCTAC,5.67
9,GATGATTGTTCTCCCAGCTGATGAATTGGGTGTATCGAGTAAACAAATTTTCCTAATCTTTCTGTTCAAGCGCCATCTAC,1.62
10,GATGATTGTTCTCCCAGCTGATGAATTGTGGGGATCGAGTAAACAAATTTTCCTAATCTTTCTGTTCAAGCGCCATCTAC,0.583
11,GATGATTGTTCTCCCAGCTGATGAATTCGAATCGTCGAGTAAACAAATTTTCCTAATCTTTCTGTTCAAGCGCCATCTAC,0.414
12,GATGATTGTTCTCCCAGCTGATGAATTATTAGCCTCGAGTAAACAAATTTTCCTAATCTTTCTGTTCAAGCGCCATCTAC,0.614
13,GATGATTGTTCTCCCAGCTGATGAATTCCGATTCTCGAGTAAACAAATTTTCCTAATCTTTCTGTTCAAGCGCCATCTAC,0.764
14,GATGATTGTTCTCCCAGCTGATGAATTCACTCCATCGAGTAAACAAATTTTCCTAATCTTTCTGTTCAAGCGCCATCTAC,0.335
15,GATGATTGTTCTCCCAGCTGATGAATTGACTCGTTCGAGTAAACAAATTTTCCTAATCTTTCTGTTCAAGCGCCATCTAC,0.372
16,GATGATTGTTCTCCCAGCTGATGAATTTTACCAATCGAGTAAACAAATTTTCCTAATCTTTCTGTTCAAGCGCCATCTAC,0.295
17,GATGATTGTTCTCCCAGCTGATGAATTTCACTTGTCGAGTAAACAAATTTTCCTAATCTTTCTGTTCAAGCGCCATCTAC,0.637
18,GATGATTGTTCTCCCAGCTGATGAATTTGACACGTCGAGTAAACAAATTTTCCTAATCTTTCTGTTCAAGCGCCATCTAC,1.34
